Experimental data as given in PMC4336329 (PLoS ONE, 2015).
In all, about 310,000 compounds went through this assay and about 2,200 (0.71%) showed an effect of 50% or more. Effects have a minus sign here. This is one part of the list.

These compounds were tested against human ether-à-go-go-related gene (hERG) potassium channel (human, UniProt Q12809) (assay: primary screen, population patch clamp on CHO cells stably expressing hERG).
Chain of human ether-à-go-go-related gene (hERG) potassium channel (Q12809 whole entry, looked up): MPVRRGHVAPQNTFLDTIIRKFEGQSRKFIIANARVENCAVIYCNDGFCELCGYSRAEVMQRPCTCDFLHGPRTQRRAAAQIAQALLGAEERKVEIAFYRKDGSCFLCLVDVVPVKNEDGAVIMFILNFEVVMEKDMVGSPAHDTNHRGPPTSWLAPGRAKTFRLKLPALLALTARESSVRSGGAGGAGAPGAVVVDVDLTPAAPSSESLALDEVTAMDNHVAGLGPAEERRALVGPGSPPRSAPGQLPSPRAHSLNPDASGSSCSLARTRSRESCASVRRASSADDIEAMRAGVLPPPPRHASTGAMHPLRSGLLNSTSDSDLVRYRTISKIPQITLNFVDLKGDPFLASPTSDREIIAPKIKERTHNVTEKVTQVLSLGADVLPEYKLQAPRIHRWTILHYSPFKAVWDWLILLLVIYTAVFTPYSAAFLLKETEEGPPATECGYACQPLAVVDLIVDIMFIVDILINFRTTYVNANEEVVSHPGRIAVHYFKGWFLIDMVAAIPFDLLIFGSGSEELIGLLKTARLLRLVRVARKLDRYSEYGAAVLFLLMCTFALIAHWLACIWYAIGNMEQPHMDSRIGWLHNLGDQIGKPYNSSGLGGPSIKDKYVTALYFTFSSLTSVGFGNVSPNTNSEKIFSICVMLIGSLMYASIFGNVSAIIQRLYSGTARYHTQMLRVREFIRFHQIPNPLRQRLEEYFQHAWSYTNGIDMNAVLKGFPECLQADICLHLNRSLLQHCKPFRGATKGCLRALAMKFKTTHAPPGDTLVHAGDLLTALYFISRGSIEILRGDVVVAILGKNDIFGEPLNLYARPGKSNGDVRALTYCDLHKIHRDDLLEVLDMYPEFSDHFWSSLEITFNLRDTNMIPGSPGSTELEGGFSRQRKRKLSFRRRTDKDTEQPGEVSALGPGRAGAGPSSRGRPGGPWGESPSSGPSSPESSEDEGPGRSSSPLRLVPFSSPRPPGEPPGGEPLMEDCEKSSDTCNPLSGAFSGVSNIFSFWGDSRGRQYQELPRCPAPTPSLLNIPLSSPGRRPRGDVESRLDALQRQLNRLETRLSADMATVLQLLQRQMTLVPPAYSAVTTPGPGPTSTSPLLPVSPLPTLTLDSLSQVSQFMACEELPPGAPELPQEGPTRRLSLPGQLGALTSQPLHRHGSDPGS

| SMILES | hERG current change (%, negative = inhibition) at 1uM |
| --- | --- |
| O=C(O)C(=O)O.c1ccc(CNC2=NCCCC2)cc1 | 10.5% |
| Cc1nc(-c2ccc(F)cc2)c(CC(=O)N2CCN(S(=O)(=O)c3ccccc3Br)CC2)s1 | -3.1% |
| Cc1c(C(=O)N2CCN(c3ccc(F)cc3)CC2)sc2nc(-c3ccccc3)cn12 | -2.42% |
| CC(Oc1ccc(Cl)cc1Cl)C(=O)OCn1nnc2ccccc2c1=O (stereo not shown) | 6.26% |
| O=C1NC2(CCCCCC2)N=C1c1ccc(Br)cc1 | 12.9% |
| Cc1cccc(N2Cc3ccccc3C2=NC(=O)c2ccc(Cl)nc2)c1 | 1.49% |
| CC(=O)N=Cc1c(C)c(C#N)c(=O)n(C)c1O | 12.6% |
| CCOn1c(=O)c(-c2ccc(F)cc2)[n+]([O-])c2ccccc21 | 10.9% |
| CCc1c(C2(O)CCCCC2)[nH]c2cc(C(F)(F)F)ccc12 | 8.66% |
| CC1CCC2(CC1)NC(=O)N(NC(=O)c1cc3ccccc3o1)C2=O (stereo not shown) | 9.59% |
| CC(C)[C@H](NS(=O)(=O)c1ccccc1)C(=O)OCC(=O)Nc1ccccc1Sc1ccccc1 | 6.4% |
| Cc1ccc2nc(NC(=O)C3CCCN(S(=O)(=O)c4cccc5nonc45)C3)sc2c1 (stereo not shown) | 11% |
| O=C(O)Cc1ccc(NC(=O)C2CC=CCC2C(=O)O)cc1 (stereo not shown) | 23.9% |
| O=C(Nc1ccc2c(c1)OCCO2)C1CCCN1S(=O)(=O)c1ccc(Cl)cc1 (stereo not shown) | 11% |
| OC(c1ccccn1)c1c[nH]c2ccccc12 (stereo not shown) | 14.2% |
| OC1(C#Cc2c(-c3ccsc3)oc3ccc(N4CCOCC4)cc23)CCCCC1 | 12.3% |
| Cc1ccccc1NC(=O)N1CCCC(c2nc(-c3ccc(C(C)C)cc3)no2)C1 (stereo not shown) | 6.67% |
| Cc1nnc(-c2ccc(Cl)cc2)nc1NCCN(C)C | -1.19% |
| CCCCn1c(=O)[nH]c(=O)c2c1nc(-c1ccc(OCCC)c(OCC)c1)n2C | 10% |
| CCCCCc1nc(-c2nonc2N)no1 | 17.3% |
| COc1cc(OC)c(N(C)S(=O)(=O)c2cccc(C(=O)OCc3c(C)noc3C)c2)cc1Cl | 11.8% |
| Cc1ccc(SCc2nc(-c3ccccn3)no2)cc1 | -2.03% |
| CN(CC(=O)Nc1ccc(F)cc1)C(=O)c1cccc(NS(=O)(=O)c2ccccc2)c1 | 0.929% |
| OCn1ncn(-c2ccccc2)c1=S | 13.8% |
| O=c1[nH]cc(N=Cc2cc(Cl)cc(Cl)c2O)c(=O)[nH]1 | 12.3% |
| COc1ccc(Nc2cc(C(=O)NCCCN3CCN(C)CC3)c3ccccc3n2)cc1OC | 4.7% |
| CCN(CC)C(=O)c1n[nH]c(=O)c2ccccc12 | 7.4% |
| CCCOc1ccc(C(=O)N/N=C/c2ccc(-c3ccc(S(=O)(=O)Nc4ncccn4)cc3)o2)cc1 | 10.7% |

| SMILES | hERG current change (%, negative = inhibition) at 1uM |
| --- | --- |
| CC(=O)c1cc2c(cc1NC(=O)c1ccc(C)cc1)OCO2 | 1.78% |
| CCOc1ccc(CCNC(=O)COC(=O)c2ccc(S(=O)(=O)N3CCCC3)cc2)cc1OCC | 22.4% |
| CCOC(=O)c1c(-c2ccccc2)c2cc(OC)ccc2n1CCCN(C)C.Cl | -27.3% |
| CCCNS(=O)(=O)c1ccc(OCC(=O)N(C)Cc2ccccc2)cc1 | 9.25% |
| COc1cc2cc(C(=O)N(C)Cc3ccccc3)[nH]c2cc1OC | 7.93% |
| CCCNC(=O)C(=O)Nc1ccc2c(c1)N(S(=O)(=O)c1cccs1)CCC2 | -3.79% |
| Cc1cc(NC(=O)c2ccc(NC(=O)CC(C)C)cc2)no1 | -7.27% |
| CC1(C)CC(=O)C=C(Nc2ccccc2)C1 | 8.86% |
| CN(C)CCN(C(=O)c1ccc(S(=O)(=O)N(C)c2ccccc2)cc1)c1nc2cc3c(cc2s1)OCO3.Cl | 10.4% |
| COc1ccc(-c2nc(CS(=O)CC(=O)NCCCN3CCOCC3)c(C)o2)cc1OC (stereo not shown) | 14% |
| COC(=O)CSC1=C(C#N)C(c2ccccc2OC)C(C(=O)OC)C(=O)N1 (stereo not shown) | 8.52% |
| O=C1CC(SC(=Nc2ccccc2)Nc2ccccc2)C(=O)N1c1ccc(Cl)cc1 (stereo not shown) | 12.7% |
| O=C(COC(=O)C1CCN(S(=O)(=O)c2cccs2)CC1)Nc1ccccc1Br | -0.345% |
| C=CCn1c2ccccc2c2nnc(SCC(=O)NC(C(=O)OC)C(C)C)nc21 (stereo not shown) | 1.83% |
| Cc1cccc(N2C(=O)CN(Cc3ccccc3)C2=S)c1 | 2.63% |
| C=CCc1cccc(/C=N/NC(=O)CCC(=O)Nc2ccc(C)cc2)c1O | 9.4% |
| CCC/C=C(\CCC)C(NC(=O)CCc1ccccc1)c1ccc(C(F)(F)F)cc1 (stereo not shown) | 11% |
| Cc1ccc2nc(SCc3cn4cccnc4n3)[nH]c2c1 | 3.82% |
| Cc1cc(C)nc(NS(=O)(=O)c2ccc(NC(=O)C(C)C)cc2)n1 | 14.4% |
| Nc1nc(-c2ccccc2)c(-c2ccc([N+](=O)[O-])cc2)s1 | 10.6% |
| CC(=O)Nc1ccc(NC(=O)C(C)OC(=O)C2CC3C=CC2C3)cc1 (stereo not shown) | 4.38% |
| CCOC(=O)C1CCCN(C(=O)c2cc(S(=O)(=O)N3CCCCC3)ccc2C)C1 (stereo not shown) | 6.78% |
| OCCN(Cc1ccccc1)CC1CC=CCC1 (stereo not shown) | 10.2% |
| CCO[C@H]1OC(C(=O)Nc2ccccc2)=C[C@@H](c2ccc(Br)cc2)[C@@H]1CCCO | 15.3% |
| CC(C)(C)NC(=O)Cn1nnc(-c2ccc(OCc3c(F)cccc3Cl)cc2)n1 | 14.3% |
| COc1ccc(C(=O)/C=C(\C)Nc2ccc(NC(C)=O)cc2)cc1 | 7.53% |
| O=C1C(=O)N(CCN2CCOCC2)C(c2ccccn2)/C1=C(/O)c1ccc(Cl)cc1 (stereo not shown) | 2.46% |
